Sequences with one replicate were seen in a single cluster, so their values are uncertain.
System: ATP
Test: switch fluorescence ratio, 500 uM ATP over buffer (Cy3 cluster intensity, sum of 5 cycles each) (fold (ratio)); higher = stronger signal-on switching upon ATP binding; sequences stand for … in TCGTCGGCAGCGTCAGATGTGTATAAGAGACAGTTTTTTTTTTTTTTTTTTTTTTTTT…TC
Conditions: aptamer strand: ATP DNA aptamer (quencher-CACCTGGGGGAGTATTGCGGAGGAAGG + anchor), 100 nM annealed; ATP concentration: 500 uM; one replicate
Summary of the method: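 Five buffer/ATP imaging cycles were run on Cy3-labelled switching-strand clusters on a modified Illumina MiSeq flow-cell, with NaOH stripping and re-annealing between cycles. In each cycle, clusters annealed to 100 nM quencher-labelled ATP aptamer were imaged in selection buffer, then after 15 min with 500 uM ATP at 22 °C. Per cluster, the fluorescence ratio is summed target-cycle over summed buffer-cycle Cy3 intensity, averaged per switch-domain sequence. Only clusters within 100-1000 RFU were kept.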
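Note: ATP exposure 15 min at 22 °C before imaging.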

Sequence	switch fluorescence ratio
GCATGCGTGC	1.05
CCGCACCACG	3.27
GGGGACCTTT	1.03
GATGGCAGAG	0.989
GAAAATCTCT	1.06
CTAAAAATGA	0.972
TCATGGGTAG	0.996
TCACATGGTG	1.29
CTTTTATCCG	1.04
CGATACGTCA	1.03
TCCCTGGGCG	1.07
AGGTCGGACT	1
GTGAGAGCCC	0.983
TACTTGCAGG	1.03
CACAGCAAGG	1.56
ACAGGTACGC	1.12
TCATTGAATT	0.936
TGCAACGGAC	2.22
TCGACAGCTT	1.34
CATAGGTTTC	0.964
AGGTTGATAG	0.985
TGGTAAAACG	1.06
GATAACCGTA	1.07

Sequence	switch fluorescence ratio
TCTTATCGAT	1.03
ACATCAGCAG	0.977
TTTCATAAGG	0.961
AGGAAATAAC	1.02
GGGAGACCAC	1.02
TTAAGCGTCT	1.07
TACTGTGGGA	1.03
CTCAGGTTTT	0.986
AATCTTTTTC	1.01
GCGGCTCGAC	1.01
CGTATAATGG	0.926
GTGGGAGGA	1.01
AACACACTTT	1.15
GAGACGCATT	1.63
ACTGAATAGC	0.989
TAGCTCGGCG	1.13
CATGCGGAAC	1.22
TTCAAGCCTA	0.993
CGCCATCGGC	0.983
ACTGGCTCGG	1.04
GAGTGTACTC	0.952
TCCAAGGATC	1.03
GACTACTGCT	0.987

Sequence	switch fluorescence ratio
ACCATCGCGT	1.01
AAATAGTAGC	1.02
TGTCACATCG	0.98
AGACAGCTCG	1.04
CGGGCGTTGA	0.947
GGGATGGAGT	0.994
TCCTTGCCAT	1.01
CGGCACAAGG	1.01
GGCGATAGTG	0.986
CTTGGACTAT	1
AGGGGCCGCT	0.965
GAATTGCAGT	0.944
CGGTCTCTAT	0.992
TGATAGGTGA	1.08
GAGAATGGGC	1.01
CGTAACTGCG	0.981
AATATTTCGT	0.996
GAAGGCGATT	1.01
AGCAGGCTAT	0.98
ACGTGATAGC	1.33
AATAAGTGGG	1.04
TTAGAAGAGT	0.98
CGGGATCT	0.967

Sequence	switch fluorescence ratio
AATTACAGCG	1
CTTGTCGGGT	0.983
TAACGGAGCA	1.92
ATATCGTAAC	1.01
TCTTACTAAC	1.16
GCAAGTCCCG	1.08
GGTGGTTCA	1.01
GAAATTATAG	0.975
AATGTGGTGG	0.93
ATGACCGCTT	1.05
GAAAGGG	0.998
GGTGTGTTTA	0.957
ATCATTGATG	1.03
CTGAGCCTG	0.976
GGCTTTCCAT	0.998
TATTCGATGG	0.966
AAGAGTTGTG	0.952
GGGCCTGGGC	0.979
CTGGTACTGC	1.06
AGGATTTTGT	0.988
GACTTCGGGT	0.929
GTAGTCAAGA	1.14
GAATTATAGC	1.15

Sequence	switch fluorescence ratio
CGGACCGTAG	1
CTTGATAGTT	1.02
GGATTTCTGC	0.968
CACTACCTCT	1.11
TTGTAGTTGA	0.99
CCAGCTCTC	1.14
TAGTAGGGAA	0.986
CATTGAGCAT	1.13
TCGTCGCCTG	0.989
TGGGGAGCCA	0.982
GTTCGTGGAG	1.07
AAGGATCGGG	0.993
ATTTTGATT	0.994
GGAAAGCCTG	0.992
CGTTGCACGC	1.06
TTGTCATCCG	1.05
GAATACGACT	1.08
GTTACCCGTC	1
TGCCATGGCA	0.945
TTATAAAGTG	1.05
CAAATTATAT	1.02
AAATGTGTCC	0.918
CCGAAGGGAG	1.02

Sequence	switch fluorescence ratio
GACACTAGAT	1.04
AAGTGAACGT	1
TGTTACCAAT	0.97
GACGCAGCAG	4.53
TCCCTTTCTA	0.977
TCATTCGGCG	1.02
GGTGGTCTTA	1.05
ATAAGTCGAA	0.956
GTGATACAGC	1.04
AAATTGTAAG	1.02
ACGATATTGC	1.15
TTATCAAGTG	0.99
GGCTGGTTCC	0.974
TTTATATAG	0.997
TTGGGATTAT	0.979
AGTTGACCGT	1.03
ATTCGGTCGT	1
CGGCGATGGC	1.05
AAGTAGACTA	1.01
TCATGGCACT	1.03
CAGCTCGGGC	1.03
TAGCCCTTGC	1.03
ATTCCTCTCG	1.93

Sequence	switch fluorescence ratio
TAAAGTAGCC	1.04
GTCATATCAA	0.969
CAGTACTTT	1.02
GCTCTATGGG	0.99
ACTTCGGCGC	1.13
GTCGTGTGTC	1.05
CATGGGGGG	0.978
TTCTGCAGTT	4.48
TAGGAATAAA	0.999
TAGCGGCCGG	0.939
TTGGTGGATT	0.979
CGATTAGCGA	1.06
GGTAGTATTG	0.938
GACTCTTCTG	1.18
TGGTTCCTTA	1.01
ATTTAAGATA	1.01
TATGTCTAAG	1.02
CGCCTCATC	1.04
CAGCGAAGAT	0.992

— the supplement of paper PMC10126150
